In PMC4251979:
Changes are numbered by the printed parent chain. Numbers in names are those of the source. Results are given in words; binding and its absence hold for the method and conditions named. For some of these results: Binding seen in cells or lysates may run through a third protein. Some binding calls cover weakened binding; strength is not graded here. For some of these results: Tags and fused reporters may be left off the sequences shown.

Sequences of proteins named here, by UniProt entry; tags and fusion partners are left off.
UniProt Q6P1D7: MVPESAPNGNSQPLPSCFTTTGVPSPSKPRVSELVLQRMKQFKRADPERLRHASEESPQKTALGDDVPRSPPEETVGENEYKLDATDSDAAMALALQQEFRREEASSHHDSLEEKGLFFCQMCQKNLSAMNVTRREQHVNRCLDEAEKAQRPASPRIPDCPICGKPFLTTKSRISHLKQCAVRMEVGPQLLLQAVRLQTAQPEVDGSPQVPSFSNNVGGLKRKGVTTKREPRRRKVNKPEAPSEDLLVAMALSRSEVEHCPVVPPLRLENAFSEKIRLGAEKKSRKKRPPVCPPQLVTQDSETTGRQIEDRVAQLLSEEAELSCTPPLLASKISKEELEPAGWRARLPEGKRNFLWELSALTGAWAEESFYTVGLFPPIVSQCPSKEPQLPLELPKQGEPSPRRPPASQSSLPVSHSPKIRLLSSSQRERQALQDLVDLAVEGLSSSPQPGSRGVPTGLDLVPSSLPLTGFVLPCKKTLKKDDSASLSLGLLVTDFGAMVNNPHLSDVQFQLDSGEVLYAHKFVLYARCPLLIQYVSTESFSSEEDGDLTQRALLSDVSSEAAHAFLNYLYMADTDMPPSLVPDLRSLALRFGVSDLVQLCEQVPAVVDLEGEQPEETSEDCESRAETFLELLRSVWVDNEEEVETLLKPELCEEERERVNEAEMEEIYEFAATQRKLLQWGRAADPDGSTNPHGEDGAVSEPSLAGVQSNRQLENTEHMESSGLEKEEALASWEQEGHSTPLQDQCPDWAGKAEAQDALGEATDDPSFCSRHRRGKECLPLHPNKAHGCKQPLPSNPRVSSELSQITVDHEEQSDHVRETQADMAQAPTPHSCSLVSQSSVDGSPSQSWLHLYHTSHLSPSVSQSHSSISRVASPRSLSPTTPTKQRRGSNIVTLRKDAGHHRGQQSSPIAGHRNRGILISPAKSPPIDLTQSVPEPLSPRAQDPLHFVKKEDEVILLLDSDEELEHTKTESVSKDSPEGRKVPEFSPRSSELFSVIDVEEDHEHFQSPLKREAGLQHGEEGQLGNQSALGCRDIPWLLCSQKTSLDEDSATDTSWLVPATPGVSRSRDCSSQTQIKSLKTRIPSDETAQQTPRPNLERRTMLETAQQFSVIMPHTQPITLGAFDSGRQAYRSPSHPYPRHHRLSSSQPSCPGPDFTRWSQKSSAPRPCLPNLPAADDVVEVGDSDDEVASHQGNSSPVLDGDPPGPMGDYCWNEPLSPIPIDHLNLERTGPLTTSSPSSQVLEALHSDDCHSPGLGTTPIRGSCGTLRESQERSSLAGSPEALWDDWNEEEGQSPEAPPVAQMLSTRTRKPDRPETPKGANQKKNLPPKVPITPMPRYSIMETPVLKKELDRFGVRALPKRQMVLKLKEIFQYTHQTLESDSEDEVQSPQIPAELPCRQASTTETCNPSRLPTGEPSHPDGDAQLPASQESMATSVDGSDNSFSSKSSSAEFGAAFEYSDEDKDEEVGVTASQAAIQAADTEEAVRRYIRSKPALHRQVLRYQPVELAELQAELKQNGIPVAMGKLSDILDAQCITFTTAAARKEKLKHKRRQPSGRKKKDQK
UniProt Q8IY92: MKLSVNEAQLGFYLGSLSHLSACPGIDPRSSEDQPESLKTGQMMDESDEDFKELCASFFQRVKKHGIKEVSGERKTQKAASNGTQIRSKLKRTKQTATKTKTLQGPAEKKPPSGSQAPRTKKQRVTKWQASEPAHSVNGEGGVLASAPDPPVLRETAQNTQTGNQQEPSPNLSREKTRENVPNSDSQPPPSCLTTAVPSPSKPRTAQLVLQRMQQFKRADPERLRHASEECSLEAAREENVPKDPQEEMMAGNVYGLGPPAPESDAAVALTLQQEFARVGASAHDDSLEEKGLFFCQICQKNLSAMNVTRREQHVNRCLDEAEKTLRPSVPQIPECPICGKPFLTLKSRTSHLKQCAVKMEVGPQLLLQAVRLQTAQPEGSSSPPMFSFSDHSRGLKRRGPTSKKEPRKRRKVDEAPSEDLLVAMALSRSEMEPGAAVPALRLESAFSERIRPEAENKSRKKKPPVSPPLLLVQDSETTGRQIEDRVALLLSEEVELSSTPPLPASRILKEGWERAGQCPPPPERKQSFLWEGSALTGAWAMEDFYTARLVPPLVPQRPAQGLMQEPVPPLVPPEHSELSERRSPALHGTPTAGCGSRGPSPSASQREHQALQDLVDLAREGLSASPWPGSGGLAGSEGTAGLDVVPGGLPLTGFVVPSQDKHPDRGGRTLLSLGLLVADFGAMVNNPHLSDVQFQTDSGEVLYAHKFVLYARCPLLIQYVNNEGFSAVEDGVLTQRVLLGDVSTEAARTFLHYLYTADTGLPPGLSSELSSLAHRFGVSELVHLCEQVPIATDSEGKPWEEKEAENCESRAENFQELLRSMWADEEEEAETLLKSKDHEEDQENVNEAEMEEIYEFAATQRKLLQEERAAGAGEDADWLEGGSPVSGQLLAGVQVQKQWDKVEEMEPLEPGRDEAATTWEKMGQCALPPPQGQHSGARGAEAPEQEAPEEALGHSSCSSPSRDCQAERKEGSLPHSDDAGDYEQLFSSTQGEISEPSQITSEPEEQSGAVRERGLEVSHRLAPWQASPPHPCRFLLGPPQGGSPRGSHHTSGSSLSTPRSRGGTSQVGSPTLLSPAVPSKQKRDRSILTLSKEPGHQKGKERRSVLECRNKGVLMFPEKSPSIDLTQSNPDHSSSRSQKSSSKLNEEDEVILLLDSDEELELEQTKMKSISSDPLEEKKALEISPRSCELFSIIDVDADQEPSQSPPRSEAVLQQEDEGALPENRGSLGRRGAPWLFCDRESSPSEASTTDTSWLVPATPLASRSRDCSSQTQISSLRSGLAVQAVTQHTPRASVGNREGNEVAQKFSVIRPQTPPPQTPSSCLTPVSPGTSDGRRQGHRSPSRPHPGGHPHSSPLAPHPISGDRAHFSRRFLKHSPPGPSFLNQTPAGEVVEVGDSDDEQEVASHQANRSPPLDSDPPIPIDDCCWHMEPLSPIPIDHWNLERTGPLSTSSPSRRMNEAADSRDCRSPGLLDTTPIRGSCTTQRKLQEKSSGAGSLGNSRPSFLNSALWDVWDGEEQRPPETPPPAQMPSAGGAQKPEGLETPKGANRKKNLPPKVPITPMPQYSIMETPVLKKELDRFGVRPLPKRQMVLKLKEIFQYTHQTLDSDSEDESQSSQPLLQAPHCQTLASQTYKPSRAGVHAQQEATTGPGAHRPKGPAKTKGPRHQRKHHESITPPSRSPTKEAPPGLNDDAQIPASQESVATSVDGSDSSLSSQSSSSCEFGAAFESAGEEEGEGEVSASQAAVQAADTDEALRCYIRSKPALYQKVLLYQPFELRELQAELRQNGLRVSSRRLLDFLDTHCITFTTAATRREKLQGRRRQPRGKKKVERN

T1: MUS81 fragment (1-106) fused to a GAL4-DNA binding domain (human) (UniProt Q96NY9)
T1 sequence: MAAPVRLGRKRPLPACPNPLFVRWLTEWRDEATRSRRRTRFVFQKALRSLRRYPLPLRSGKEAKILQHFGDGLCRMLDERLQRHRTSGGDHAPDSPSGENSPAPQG

T2: MUS81 fragment (1-250) fused to a GAL4-DNA binding domain (human) (UniProt Q96NY9)
T2 sequence: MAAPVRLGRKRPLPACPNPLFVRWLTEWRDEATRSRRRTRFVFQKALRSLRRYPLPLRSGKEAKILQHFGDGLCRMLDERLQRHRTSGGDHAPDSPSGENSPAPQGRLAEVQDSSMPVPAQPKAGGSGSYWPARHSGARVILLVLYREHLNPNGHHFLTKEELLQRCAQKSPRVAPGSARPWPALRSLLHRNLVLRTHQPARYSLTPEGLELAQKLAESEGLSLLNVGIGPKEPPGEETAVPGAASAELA

T3: FLAG-MUS81 L66A Q67A (human) (UniProt Q96NY9)
T3 sequence: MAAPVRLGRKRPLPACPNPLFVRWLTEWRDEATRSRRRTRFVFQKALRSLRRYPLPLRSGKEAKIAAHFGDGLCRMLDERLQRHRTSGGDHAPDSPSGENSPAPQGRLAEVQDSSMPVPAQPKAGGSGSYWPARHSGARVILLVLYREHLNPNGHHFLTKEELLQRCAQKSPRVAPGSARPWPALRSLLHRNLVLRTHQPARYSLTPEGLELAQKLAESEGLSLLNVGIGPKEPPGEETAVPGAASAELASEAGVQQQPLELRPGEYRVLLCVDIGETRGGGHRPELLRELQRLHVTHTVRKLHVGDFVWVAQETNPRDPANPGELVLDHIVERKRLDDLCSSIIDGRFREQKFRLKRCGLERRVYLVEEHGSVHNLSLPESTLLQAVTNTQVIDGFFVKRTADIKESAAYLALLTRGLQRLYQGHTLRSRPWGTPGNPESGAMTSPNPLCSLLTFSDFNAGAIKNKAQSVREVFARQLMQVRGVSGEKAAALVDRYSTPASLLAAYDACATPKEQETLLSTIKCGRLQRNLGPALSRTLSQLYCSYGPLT

T4: FLAG-MUS81 W24A L25A (human) (UniProt Q96NY9)
T4 sequence: T3 sequence with W24A, L25A, A66L, A67Q

B1: EME1 (HEK293 cells) (protein, UniProt Q96AY2 1-570)
chain: MALKKSSPSLDSGDSDSEELPTFAFLKKEPSSTKRRQPEREEKIVVVDISDCEASCPPAPELFSPPVPEIAETVTQTQPVRLLSSESEDEEEFIPLAQRLTCKFLTHKQLSPEDSSSPVKSVLDHQNNEGASCDWKKPFPKIPEVPLHDTPERSAADNKDLILDPCCQLPAYLSTCPGQSSSLAVTKTNSDILPPQKKTKPSQKVQGRGSHGCRQQRQARQKESTLRRQERKNAALVTRMKAQRPEECLKHIIVVLDPVLLQMEGGGQLLGALQTMECRCVIEAQAVPCSVTWRRRAGPSEDREDWVEEPTVLVLLRAEAFVSMIDNGKQGSLDSTMKGKETLQGFVTDITAKTAGKALSLVIVDQEKCFSAQNPPRRGKQGANKQTKKQQQRQPEASIGSMVSRVDAEEALVDLQLHTEAQAQIVQSWKELADFTCAFTKAVAEAPFKKLRDETTFSFCLESDWAGGVKVDLAGRGLALVWRRQIQQLNRVSLEMASAVVNAYPSPQLLVQAYQQCFSDKERQNLLADIQVRRGEGVTSTSRRIGPELSRRIYLQMTTLQPHLSLDSAD
B2: wild-type mouse MUS81 (protein, UniProt Q91ZJ0 1-551)
chain: MAEPVRLGRKRPLPVCPNPLFVRWLTEWRDEAASRGRHTRFVFQKALRSLQRYPLPLRSGKEAKILQHFGDRLCRMLDEKLKQHLASGGDHAPSSPSGKKGASKGPPEQVQDSSMPVPTQPQAGSTSVGYWPAQNSGAREILLQLYREHLNSDGHSFLTKEELLQKCAQKTPRVVPGSSKPWPALRSLLHRNLILGTHRPARYALTPEGLELAQKLAEAEGLSTRHAGFRPEEHHGEDSAVPEALSEPGTTEGAVQQRPLELRPSEYRVLLCVDIGETRGAGHRPEMLRELQRLRVPHTVRKLHVGDFVWVAQETRPRDPERPGELVLDHIVERKRLDDLCSSIIDGRFREQKFRLKRCGLGHRVYLVEEHGSVHNLSLPESTLLQAVTNTQVIDGFFVKRTMDIKESAGYLALLTKGLERLYQGHTLRSRPWGAPGAAESEAKPSTNPLCSLLTFSDFNAEAVKNKAQSVREVFARQLMQVRGLSGEKAAAVVDRYSTPASLLAAYDACATAKEQEMLLSTIKCGRLQRNLGPALSRTLYQLYCSHSPLS
B3: wild-type MUS81 expressed in MUS81-/- HCT116 cells (protein, UniProt Q96NY9 1-551)
chain: T3 sequence with A66L, A67Q
B4: full-length mouse MUS81 W24A L25A (protein, UniProt Q91ZJ0 1-551)
chain: B2 chain with W24A, L25A
B5: full-length mouse MUS81 L66A Q67A (protein, UniProt Q91ZJ0 1-551)
chain: B2 chain with L66A, Q67A
B6: MUS81 24/25AA expressed in MUS81-/- HCT116 cells (protein, UniProt Q96NY9 1-551)
chain: T3 sequence with W24A, L25A, A66L, A67Q
B7: MUS81 66/67AA expressed in MUS81-/- HCT116 cells (protein, UniProt Q96NY9 1-551)
chain: T3 sequence

Legend:
[1] = target: T1, MUS81 fragment (1-106) fused to a GAL4-DNA binding domain (human); experiment: two-hybrid; yeast two-hybrid; MUS81 fused to GAL4 DNA binding domain, SLX4 fused to GAL4 activation domain; HIS3 and lacZ reporters
[2] = target: T2, MUS81 fragment (1-250) fused to a GAL4-DNA binding domain (human); experiment: as above
[3] = target: T3, FLAG-MUS81 L66A Q67A (human); experiment: co-IP; HEK293 cells transiently transfected with FLAG-MUS81 (wild type or mutants); extracts immunoprecipitated with anti-FLAG (FLAG-M2 agarose beads), western blotting
[4] = target: T4, FLAG-MUS81 W24A L25A (human); experiment: as above
[5] = target: SLX4 (MEFs) (mouse (endogenous in MEFs)) (UniProt Q6P1D7); experiment: co-IP; extracts of Mus81-/- MEFs complemented by retroviruses with MUS81 (wild type or mutants); immunoprecipitation with anti-SLX4 antibodies, western blotting
[6] = target: endogenous SLX4 (human cells) (human (endogenous in HEK293 and HCT116)) (UniProt Q8IY92); experiment: co-IP; extracts of MUS81-/- HCT116 cells complemented by retroviruses with MUS81 (wild type or mutants); immunoprecipitation with anti-MUS81 and anti-SLX4 antibodies, western blotting

Molecule | binding [5] | binding [6] | other results
full-length SLX4 fused to a GAL4-activation domain (from UniProt Q8IY92 1-1834) |  |  | binding [1]: binds; binding [2]: binds
B1 |  |  | binding [3]: binds; binding [4]: binds
B2 | binds |  | 
B3 |  | binds | 
B4 | no binding |  | 
B5 | no binding |  | 
B6 |  | no binding | 
B7 |  | no binding | 
